Reference: the supplement of paper PMC3334620
In all, about 33,000 sequences were measured (“E-score (-0.5 to 0.5)”: median about -0.035, highest 2% from about 0.34 on). This is one part of the list.

The sequences below were run against T1, Mot3 (UniProt P54785) (assay: PBM E-score (8-mer binding enrichment) (E-score (-0.5 to 0.5)); higher = stronger / more preferred TF binding; most listed sequences are background and not binding sites). Settings: protein concentration: 200 nM; construct: GST-full length.
T1 sequence: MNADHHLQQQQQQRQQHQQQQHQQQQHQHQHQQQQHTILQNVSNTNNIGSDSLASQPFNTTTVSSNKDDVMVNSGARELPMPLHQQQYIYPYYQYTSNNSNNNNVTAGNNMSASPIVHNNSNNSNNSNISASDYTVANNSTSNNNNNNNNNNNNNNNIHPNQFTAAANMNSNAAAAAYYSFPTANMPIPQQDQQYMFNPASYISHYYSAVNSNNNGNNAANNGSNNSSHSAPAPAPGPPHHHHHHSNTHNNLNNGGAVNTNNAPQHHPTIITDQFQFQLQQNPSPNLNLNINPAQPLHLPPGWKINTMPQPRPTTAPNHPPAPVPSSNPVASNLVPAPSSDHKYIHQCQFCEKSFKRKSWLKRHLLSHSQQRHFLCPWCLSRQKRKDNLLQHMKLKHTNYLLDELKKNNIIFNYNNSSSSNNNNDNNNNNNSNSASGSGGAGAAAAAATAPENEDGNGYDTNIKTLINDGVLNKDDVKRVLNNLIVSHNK
How it was run: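 Yeast transcription factors carrying a GST tag, as full-length proteins or DNA-binding domains, were produced by PURExpress in vitro transcription/translation. About 100-200 nM protein was applied to universal all-10-mer Agilent arrays, double-stranded by primer extension on fresh or once-stripped slides. Bound protein was detected with fluorescent anti-GST, and scans were normalised with masliner. The Universal PBM Analysis Suite gave each ungapped eight-base word, pooled with its reverse complement, an E-score, a modified Wilcoxon-Mann-Whitney statistic.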

Question: How did the “PBM E-score” value turn out when ATAGACTA was run?
Answer: 0.0348

Question: For GTGGTCGA, which “PBM E-score” value is on record?
Answer: -0.203

Question: ACAAATCC was tested. Which “PBM E-score” value did it give?
Answer: -0.118

Question: How did the “PBM E-score” value turn out when CCGTAAGC was run?
Answer: -0.243

Question: How did the “PBM E-score” value turn out when GGGTCATA was run?
Answer: -0.0102

Question: How did the “PBM E-score” value turn out when AACACGGG was run?
Answer: 0.305

Question: How did the “PBM E-score” value turn out when CCACGTGG was run?
Answer: -0.352

Question: How did the “PBM E-score” value turn out when CACCTTGA was run?
Answer: 0.00659

Question: How did the “PBM E-score” value turn out when ACCCACGC was run?
Answer: -0.0754

Question: How did the “PBM E-score” value turn out when TTCGAGAA was run?
Answer: -0.0831

Question: How did the “PBM E-score” value turn out when CCTCGCCA was run?
Answer: -0.221

Question: How did the “PBM E-score” value turn out when GGCGGCTA was run?
Answer: -0.234

Question: For AGATCCTA, which “PBM E-score” value is on record?
Answer: -0.107

Question: With AGACGCAC as the sequence, how does the “PBM E-score” value read?
Answer: -0.164

Question: With CGCTTTCC as the sequence, how does the “PBM E-score” value read?
Answer: 0.0246

Question: CAGCCAAA was tested. Which “PBM E-score” value did it give?
Answer: 0.0214

Question: AAGTGGTG was tested. Which “PBM E-score” value did it give?
Answer: -0.133

Question: With CCGAGTCG as the sequence, how does the “PBM E-score” value read?
Answer: -0.246

Question: With ACACTCAC as the sequence, how does the “PBM E-score” value read?
Answer: -0.0219

Question: For ACTCTTAA, which “PBM E-score” value is on record?
Answer: -0.0394

Question: With ACTCATGC as the sequence, how does the “PBM E-score” value read?
Answer: -0.164

Question: For TAACGGCA, which “PBM E-score” value is on record?
Answer: -0.0443

Question: Which “PBM E-score” value does the source give for AACCTGCG here?
Answer: 0.0347

Question: Which “PBM E-score” value does the source give for ATAACCGC here?
Answer: -0.0312

Question: For AACCCTTG, which “PBM E-score” value is on record?
Answer: 0.0611

Question: With ATCAGGCG as the sequence, how does the “PBM E-score” value read?
Answer: 0.0225

Question: AGCTAATA was tested. Which “PBM E-score” value did it give?
Answer: 0.0927

Question: Which “PBM E-score” value does the source give for CATCGGAA here?
Answer: -0.0362

Question: For AATGCACA, which “PBM E-score” value is on record?
Answer: 0.193

Question: How did the “PBM E-score” value turn out when GAGTACAC was run?
Answer: 0.209

Question: How did the “PBM E-score” value turn out when CTAGGTTA was run?
Answer: 0.0412

Question: How did the “PBM E-score” value turn out when GTGGAAAC was run?
Answer: -0.176

Question: Which “PBM E-score” value does the source give for CATAAACA here?
Answer: 0.158

Question: Which “PBM E-score” value does the source give for ACAGGTCT here?
Answer: -0.243

Question: Which “PBM E-score” value does the source give for AAATTGAG here?
Answer: -0.00014

Question: How did the “PBM E-score” value turn out when ATTAGCGG was run?
Answer: -0.112

Question: For CGTTTAGC, which “PBM E-score” value is on record?
Answer: -0.0577

Question: With GACTGGAC as the sequence, how does the “PBM E-score” value read?
Answer: -0.24

Question: How did the “PBM E-score” value turn out when CTAGACTA was run?
Answer: -0.24

Question: Which “PBM E-score” value does the source give for CTAGGGGC here?
Answer: -0.293

Question: CTTAAACA was tested. Which “PBM E-score” value did it give?
Answer: -0.00812

Question: How did the “PBM E-score” value turn out when GCCAGTAC was run?
Answer: -0.0423

Question: CGCAACCC was tested. Which “PBM E-score” value did it give?
Answer: -0.0416

Question: How did the “PBM E-score” value turn out when CTGTCAGC was run?
Answer: -0.305

Question: How did the “PBM E-score” value turn out when ATCGAGGG was run?
Answer: -0.206

Question: ACTACTGG was tested. Which “PBM E-score” value did it give?
Answer: -0.0803

Question: For CCTCATCG, which “PBM E-score” value is on record?
Answer: 0.00434

Question: CGAATGCC was tested. Which “PBM E-score” value did it give?
Answer: -0.109

Question: For GAGGTAGA, which “PBM E-score” value is on record?
Answer: -0.00895

Question: For CTTTAGTC, which “PBM E-score” value is on record?
Answer: -0.152

Question: For ATGCCGCG, which “PBM E-score” value is on record?
Answer: -0.133

Question: How did the “PBM E-score” value turn out when GATTAGAA was run?
Answer: -0.0329

Question: Which “PBM E-score” value does the source give for CATGTACA here?
Answer: 0.387

Question: With CCGTTTAC as the sequence, how does the “PBM E-score” value read?
Answer: 0.214

Question: For CTTCAGAC, which “PBM E-score” value is on record?
Answer: -0.049

Question: With CTATGTTA as the sequence, how does the “PBM E-score” value read?
Answer: 0.329

Question: For ACTATGCG, which “PBM E-score” value is on record?
Answer: -0.0757

Question: GCGTACAA was tested. Which “PBM E-score” value did it give?
Answer: 0.146

Question: For CACGGCTC, which “PBM E-score” value is on record?
Answer: 0.0397

Question: With GGGCAAGA as the sequence, how does the “PBM E-score” value read?
Answer: 0.0525

Question: ACTCAGCG was tested. Which “PBM E-score” value did it give?
Answer: 0.00128

Question: CTCGCATC was tested. Which “PBM E-score” value did it give?
Answer: -0.165

Question: How did the “PBM E-score” value turn out when AGCATGAA was run?
Answer: 0.0148

Question: How did the “PBM E-score” value turn out when AATGGTCT was run?
Answer: -0.176

Question: ATGACCTC was tested. Which “PBM E-score” value did it give?
Answer: -0.242

Question: With CTATTTGC as the sequence, how does the “PBM E-score” value read?
Answer: 0.0068

Question: How did the “PBM E-score” value turn out when GAGTAGGA was run?
Answer: -0.0438

Question: For AAGATATC, which “PBM E-score” value is on record?
Answer: -0.189

Question: With CAACTAGA as the sequence, how does the “PBM E-score” value read?
Answer: 0.0435

Question: CTTATATA was tested. Which “PBM E-score” value did it give?
Answer: 0.00666

Question: How did the “PBM E-score” value turn out when AAATTACA was run?
Answer: 0.365

Question: How did the “PBM E-score” value turn out when CGCACTTC was run?
Answer: -0.213

Question: For GCGGCTTA, which “PBM E-score” value is on record?
Answer: -0.229

Question: GTCAAATA was tested. Which “PBM E-score” value did it give?
Answer: 0.0321

Question: CCTCGTTA was tested. Which “PBM E-score” value did it give?
Answer: 0.176

Question: Which “PBM E-score” value does the source give for AATTGGCG here?
Answer: -0.044

Question: With CCGTGACG as the sequence, how does the “PBM E-score” value read?
Answer: -0.056

Question: Which “PBM E-score” value does the source give for AACTGCGC here?
Answer: -0.045

Question: How did the “PBM E-score” value turn out when AGGGGAAA was run?
Answer: -0.00744

Question: For ATTACTCC, which “PBM E-score” value is on record?
Answer: 0.074

Question: For AAGATTGT, which “PBM E-score” value is on record?
Answer: 0.126

Question: With AAGATTTG as the sequence, how does the “PBM E-score” value read?
Answer: -0.0599

Question: Which “PBM E-score” value does the source give for CAACGTCC here?
Answer: -0.0728

Question: With GTAGCCAC as the sequence, how does the “PBM E-score” value read?
Answer: -0.169

Question: Which “PBM E-score” value does the source give for GATGATGA here?
Answer: -0.243

Question: CTAGCGCC was tested. Which “PBM E-score” value did it give?
Answer: -0.116

Question: How did the “PBM E-score” value turn out when ACCACACG was run?
Answer: 0.245

Question: How did the “PBM E-score” value turn out when GCCTGGTA was run?
Answer: 0.129

Question: With CATGGAGG as the sequence, how does the “PBM E-score” value read?
Answer: -0.0382

Question: How did the “PBM E-score” value turn out when GGTCTAAC was run?
Answer: -0.21

Question: CTTTCAGC was tested. Which “PBM E-score” value did it give?
Answer: -0.194

Question: For GCCGAGAA, which “PBM E-score” value is on record?
Answer: -0.133

Question: With AGTTTCTA as the sequence, how does the “PBM E-score” value read?
Answer: -0.0478

Question: How did the “PBM E-score” value turn out when CAAGCACC was run?
Answer: -0.00018

Question: Which “PBM E-score” value does the source give for GACTCGAC here?
Answer: -0.113

Question: How did the “PBM E-score” value turn out when CTTACCTA was run?
Answer: 0.175

Question: For CTCCAAAA, which “PBM E-score” value is on record?
Answer: -0.179

Question: For CGGCTATA, which “PBM E-score” value is on record?
Answer: -0.0444

Question: AACCCCTT was tested. Which “PBM E-score” value did it give?
Answer: 0.139

Question: TCGATTAA was tested. Which “PBM E-score” value did it give?
Answer: 0.183

Question: With AGTGCGCC as the sequence, how does the “PBM E-score” value read?
Answer: -0.0847

Question: ATTTGGTC was tested. Which “PBM E-score” value did it give?
Answer: 0.00352

Question: For ACATAACC, which “PBM E-score” value is on record?
Answer: 0.151

Question: How did the “PBM E-score” value turn out when CAGCGTGG was run?
Answer: -0.126

Question: With CCTTTTGA as the sequence, how does the “PBM E-score” value read?
Answer: 0.214

Question: With ACGCATCC as the sequence, how does the “PBM E-score” value read?
Answer: 0.025

Question: Which “PBM E-score” value does the source give for CACTACCA here?
Answer: 0.00427

Question: For AAGTGTGC, which “PBM E-score” value is on record?
Answer: 0.1

Question: Which “PBM E-score” value does the source give for GCTGTTAC here?
Answer: -0.0841

Question: For GTAGAGAC, which “PBM E-score” value is on record?
Answer: -0.0205
